“And” between values parts separate entries of the source, which are not always exact repeats. Equal values may be shown once. The campaign covered roughly 420,000 compounds. About 64,000 (15%) were called active. Inconclusive results, whose numbers are uncertain, are shown with a selection of clear calls. Calls follow the shape of the dose curve; as a rule, active = well fitted inhibition curve with a large enough effect; inconclusive = small, poorly fitted or top-dose-only effect; inactive = flat fitted curve, though single readings scatter. Where the call is inconclusive, the potency comes from a doubtful curve fit.
experiment: qHTS for Inhibitors of human tyrosyl-DNA phosphodiesterase 1 (TDP1): qHTS in cells in absence of CPT; conditions: DT40 Tdp1-/- hTDP1 cells, no CPT, ATP luminescence, 48 h; activity change, negative = growth inhibition: at 46.2 µM (top of the series) unless noted; also: nearly all actives have a fitted effect of over 55% in size
Procedure, shortened: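 Compound effects on proliferation are scored in DT40 Tdp1-/-;hTDP1 cells in the absence of CPT. ATP levels (CellTiter-Glo luminescence) are recorded after a ≥48 hr, 37 °C incubation.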
% is scaled to controls: 0 for no effect and ±100 for the full control effect; potency is read from the fitted curve at half-maximal effect; tags tell the direction and shape of the fitted curve.

SMILES	Potency	activity change, negative = growth inhibition
CN1CCN(CCCNC(=O)c2ccc(CSCc3cccc(Cl)c3)o2)CC1	inconclusive: 25.9 µM [inhibitor, single point]	–
COc1ccc(-c2noc(Cn3c(=O)c4ccccc4n(CC(=O)Nc4cccc(C(F)(F)F)c4)c3=O)n2)cc1	active: 16.4 µM	–
CCOC(=O)C1CCCN(C(=O)c2ccncc2)CC1 (stereo not given)	inactive	–
Cc1ccc(S(=O)(=O)NC(CC(=O)OCc2ccccc2)C(=O)OCc2ccccc2)cc1 (stereo not given)	inconclusive: 25.9 µM [inhibitor, single point]	–
CCCC(C)C(=O)Nc1ccc2c(c1)OCCO2 (stereo not given)	inactive	–
CC(=O)c1cccc(NC(=O)Nc2cnn(Cc3ccc(Cl)cc3Cl)c2)c1	inconclusive: 23.1 µM [inhibitor, single point]	–
Cc1cc(NC(=O)CN2CCN(c3ccccn3)CC2)ccc1Br	inconclusive: 18.4 µM [inhibitor, single point]	–
Cc1cncc(NCc2cccc(Cl)c2)n1	inactive	–
COc1cccc(CC(=O)Nc2cc(S(=O)(=O)N3CCOCC3)ccc2N2CCOCC2)c1	inconclusive: 29.1 µM [inhibitor, single point]	–
COc1cc(C(O)c2nc3ccccc3n2C)cc(OC)c1OC (stereo not given)	active: 18.4 µM	–
O=C1CC(c2ccc(O[C@@H]3OC(CO)[C@@H](O)C(O)C3O)cc2)Oc2cc(O)ccc21 (stereo not given in full)	–	inactive: -5.95% [at 9.04 µM]
O=C(Cc1ccc(F)cc1)NCCc1csc(-c2cccc(F)c2)n1	inconclusive: 14.6 µM [inhibitor, single point]	–
CCOc1ccc(N(CC)S(=O)(=O)N2CCCC(C(=O)NCc3ccc(Cl)cc3)C2)cc1 (stereo not given)	inconclusive: 29.1 µM [inhibitor, single point]	–
Cc1noc(C)c1COc1ccc(C(=O)N2CCN(c3ccccc3O)CC2)cc1	active: 16.4 µM	–
O=S(=O)(Nc1cccc(-c2ccc(N3CCCCCC3)nn2)c1)c1ccccc1	inconclusive: 16.4 µM [inhibitor, single point]	–
CC(C)c1ccccc1OCCCN1CCCC1	inconclusive: 14.6 µM [inhibitor, single point]	–
CCn1c(SCC(=O)N2CCC(C)CC2)nnc1-c1ccccc1O	inactive	–
C=CCn1cnc2scc(-c3ccc(OC)cc3)c2c1=O	inconclusive: 13 µM [inhibitor, partial curve]	–
O=C(N/N=C/c1ccccc1O)C(=O)N1CCCCCC1	inconclusive: 23.1 µM [inhibitor, single point]	–
COc1cccc(-c2cc(C(=O)N3CCN(C(c4ccccc4)c4ccccc4)CC3)no2)c1	active: 25.9 µM	–
COC(=O)/C(=C\Nc1ccccc1N)c1ncc(C(F)(F)F)cc1Cl	inconclusive: 13 µM [inhibitor, partial curve, poor fit]	–
COc1ccc2c(c1)CCC/C2=N/OC(=O)c1ccccc1OC	–	inconclusive: -34.5% [inhibitor]
CCc1ccc(C2CC(c3cccc(OC)c3)n3nc(N)nc3N2)cc1 (stereo not given)	–	inconclusive: -33.7% [inhibitor]
Cc1cc(C)c(NC(=O)NC(=O)c2ccc(F)cc2)c(C)n1	inconclusive: 29.1 µM [inhibitor, single point]	–
COC(=O)CN(c1nc(C)c(Cl)c(OC)n1)S(=O)(=O)c1ccc(C)cc1	inactive	–

SMILES	Potency	activity change, negative = growth inhibition
COc1ccc(-c2nc(N3CCCCCC3)sc2C(=O)c2ccccc2)cc1	active: 23.1 µM	–
Cc1ccc(S(=O)(=O)NCCc2sc3nc(-c4ccccc4)nn3c2C)cc1C	inactive	–
CC(C)c1ccc(NC(=O)Nc2nc(C(N)COCc3ccccc3)cs2)cc1 (stereo not given)	active: 14.6 µM	–
CCCc1nc(-c2ccccc2O)n(-c2ccccc2)n1	inactive	–
CCCCOc1ccc(C(=O)Nc2ccncc2)cc1	active: 2.59 µM	–
COC(c1ccc(Cl)cc1)(c1ccc(Cl)cc1)C(Oc1nccc(C)n1)C(=O)O (stereo not given)	inactive	–
Cc1ccnc(NC(=O)c2cccc(NC(=O)CC3SC(N4CCCCC4)=NC3=O)c2)c1 (stereo not given)	inconclusive: 25.9 µM [inhibitor, single point]	–
Cc1cc(NC(=O)c2noc3c2CCCC3)n(-c2ccccc2)n1	inactive	–
Cc1nc(N)sc1-c1csc(Nc2ccccn2)n1	inconclusive: 18.4 µM [inhibitor, single point]	–
CCC(=O)N/C(N)=N/c1nc(C)c2cc(OC)ccc2n1	active: 11.6 µM	–
Cc1cc(OC(C)C(=O)Nc2ccncc2)ccc1Cl (stereo not given)	active: 23.1 µM	–
Cc1cc(NC(=O)C2CCCN2C(=O)Nc2c(C)cccc2C)ccc1-n1cnnn1 (stereo not given)	inconclusive: 16.4 µM [inhibitor, partial curve]	–
CC(C)(C)c1ccc(OCCCC(=O)N2CCOCC2)cc1	inconclusive: 18.4 µM [inhibitor, single point]	–
COc1ccccc1CC(=O)N1CCN(c2ccccc2F)CC1	inconclusive: 29.1 µM [inhibitor, single point]	–
Cc1oc(-c2cccc(Br)c2)nc1Cn1c(=O)cc(-c2ccccc2)c2c(C)nn(C)c21	inactive	–
CCOC(=O)c1ccc2c(c1)N(Cc1cccc(C(F)(F)F)c1)C(=O)c1ccccc1S2(=O)=O	active: 16.4 µM	–
CCCOc1ccc(Nc2cc(C)nc(C)n2)cc1	inconclusive: 25.9 µM [inhibitor, single point]	–
CCc1ccccc1Nc1cc(C(=O)NCCc2ccccc2)c2ccccc2n1	inconclusive: 16.4 µM [inhibitor, single point]	–
O=C(NN=C(Cc1ccccc1)Cc1ccccc1)c1ccncc1	–	inconclusive: -35.9% [inhibitor]
COc1cc(OC)cc(C(=O)N[C@H](C(=O)Nc2nc(-c3cc(OC)ccc3OC)cs2)C(C)C)c1	inconclusive: 20.6 µM [inhibitor, single point]	–
O=C(O)c1ccc(S(=O)(=O)NC2CCCCCC2)cc1	inactive	–
COc1ccc(N(C(=O)c2ccc(Br)o2)C2C=CS(=O)(=O)C2)c(OC)c1 (stereo not given)	active: 18.4 µM	–
O=C(CCc1nc2ccccc2c(=O)[nH]1)OCCOc1ccc(Cl)cc1	inactive	–
COc1ccccc1NC(=O)C1=C(C)Nc2nc3ccccc3n2C1c1cccc(Br)c1 (stereo not given)	inconclusive: 29.1 µM [inhibitor, single point]	–
COc1ccc(-n2nc(C(=O)N3CCCCC3)c3ccccc3c2=O)cc1	inactive	–

SMILES	Potency	activity change, negative = growth inhibition
CN(C)CC/C=C1\c2cc(Cl)ccc2Sc2cc(F)c(F)cc21	active: 23.1 µM	–
COc1ccc(Cn2c(=O)[nH]c3cc(C(=O)N4CCN(c5ccccc5)CC4)ccc3c2=O)cc1	inactive and inconclusive: 20.6 µM [inhibitor, single point]	–
COc1cc(C2Nc3ccccc3C(=O)N2Cc2ccco2)ccc1O (stereo not given)	inconclusive: 35.5 µM [inhibitor, single point]	–
COCc1cc(C)nc(OCC(=O)N/N=C/c2ccc(O)cc2)c1C#N	inactive	–
CN(C)Cc1c(C(=O)N/N=C/c2ccc(-c3ccccc3)cc2)nnn1-c1nonc1N	inconclusive: 29.1 µM [inhibitor, single point]	–
CCCOCC(O)CC(CC)C(=O)NNC(=S)Nc1ccccc1 (stereo not given)	inactive	–
Cc1cc(-n2cnc(-c3cn(C)nc3C)n2)no1	inactive	–
CCN(CC)S(=O)(=O)c1ccc(NC(=S)Nc2ccc(F)cc2)cc1	inconclusive: 29.1 µM [inhibitor, single point]	–
CC(C)N(Cc1nnc(-c2ccc(Cl)cc2)o1)C(=O)c1cc2ccccc2o1	inconclusive: 16.4 µM [inhibitor, partial curve]	–
CCOc1ccc2[nH]c(C)c(CN3CCCCCC3)c(=O)c2c1	inactive	–
COC(=O)c1cc(NS(=O)(=O)c2ccc(C)c3ccccc23)ccc1N1CCOCC1	inconclusive: 16.4 µM [inhibitor, single point]	–
CC1CCc2cc(F)cc3c(O)c(C(=O)NCC4CCCO4)c(=O)n1c23 (stereo not given)	inconclusive: 23.1 µM [inhibitor, single point]	–
CCOC(=O)CSc1nc2sc3c(c2c(=O)n1-c1ccc(OC)cc1)CCN(C)C3	inconclusive: 29.1 µM [inhibitor, single point]	–
CCCn1ccc2c(OCC(=O)Nc3ccccc3OCC)cccc2c1=O	active: 11.6 µM	–
Cn1c(SCc2cccc(F)c2)nc2c([nH]c3ccccc32)c1=O	inconclusive: 5.8 µM [inhibitor, full curve]	–
CCCN1C=CC(=CC=C(C#N)C#N)C=C1	inactive	–
O=C(NCC(c1cccnc1)N1CCOCC1)C(=O)Nc1ccc(F)cc1 (stereo not given)	inactive	–
COc1ccc(CCNC(=O)C2CCN(c3nc4ccccc4nc3C(F)(F)F)CC2)cc1OC	active: 18.4 µM	–
S=C(NC1CCCC1)N1CCN(c2ncccn2)CC1	–	inconclusive: -26.4% [inhibitor]
CCCN1CCC(=O)N([C@H](CSc2ccc(C)cc2)Cc2ccccc2)CC1	inconclusive: 18.4 µM [inhibitor, single point]	–
CN(C)C(=O)c1ccc(-c2ccc3ncnc(Nc4ccccc4)c3c2)cc1	active: 1.46 µM	–
CCOc1ccccc1-n1c(COc2ccc(C)cc2)nnc1SCC(N)=O	inconclusive: 0.326 µM [inhibitor, full curve, poor fit]	–
COc1ccc(N(C)C(=O)C2CCN(S(=O)(=O)c3cccc4nsnc34)CC2)cc1	inconclusive: 11.6 µM [inhibitor, partial curve, poor fit]	–
CCc1nnc(NC(=O)C2Cc3ccccc3CN2S(=O)(=O)CC)s1 (stereo not given)	inactive	–
COc1ccc(C(=O)Oc2c(Sc3ccccc3)c(C)nn2-c2ccccc2)cc1OC	inconclusive: 5.8 µM [inhibitor, partial curve, poor fit]	–
